Screen size: about 360,000 compounds; about 6,000 (1.7%) were called active. The shares of active, inactive and inconclusive entries below differ from those in the screen. Calls follow the shape of the dose curve; as a rule, active = well fitted cell-killing curve with a large enough effect; inconclusive = small, poorly fitted or top-dose-only effect, or effect the other way; inactive = flat fitted curve, though single readings scatter. Potencies of inconclusive entries are left out as doubtful fits.
Assay: qHTS for induction of synthetic lethality in tumor cells producing 2HG: qHTS for the HT-1080-NT fibrosarcoma cell line;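 also: NT is the 2HG producing partner of a matched IDH1 knockdown line; nearly all actives have a fitted effect of over 55% in size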
Details: HT-1080-NT fibrosarcoma viability, CellTiter-Glo ATP luminescence, 48 h; series mostly up to 46.1 µM
Procedure, shortened: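 Viability by CellTiter-Glo luminescence after 48 h compound exposure at 37C of HT-1080-NT cells (750/well, RPMI, 5% FBS). % activity scaled between DMSO wells and medium-only wells, then curve-fitted and categorized by curve class.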
For Cc1ccc(NC(=O)CN(C)C(=O)CSc2nnc(C(F)(F)F)n2C)cc1, the Potency was “inactive”. For C#CCNC(=O)C[C@@H]1C[C@@]2(C(=O)OCC)CCCC=C2N(Cc2cccc3ccccc23)C1=O, the Potency was inconclusive [cytotoxic, single point]. For COc1cc(/C=N\NS(=O)(=O)c2ccccc2)cc(OC)c1OC, the Potency was “inactive”. With Cc1cccc(-c2ccc3[nH]c4c(c3c2)CCN2C[C@@H]([C@H](C)OC(=O)Nc3ccccc3C)[C@@H](N(C)C(=O)Nc3ccccc3C)C[C@@H]42)c1 the Potency was inconclusive [cytotoxic, single point]. In the case of Cc1cc(-c2ccccc2)nc2cc(C(=O)N(Cc3ccccc3)Cc3ccccc3)nn12, the Potency is reported as inconclusive [cytotoxic, single point]. In the case of COCCN1C[C@@H](CO)O[C@@H](n2cnc3c(NCCN(C)C)ncnc32)C1, the Potency is reported as “inactive”. With CCCCC(=O)Nc1ccc(C(=O)Nc2ccc(S(=O)(=O)N3CCCC3)cc2)cc1 the Potency was inconclusive [cytotoxic, single point]. With COC(=O)C1=C(C)N(Cc2ccccc2)C(=NCc2cccc(C(F)(F)F)c2)N[C@H]1c1cccc(F)c1 the Potency was inconclusive [cytotoxic, single point]. For CCOC(=O)C1(CCc2ccccc2)CCN(C(=O)c2cc(C)nc(C)n2)CC1, the Potency was “inactive”. In the case of CCCn1c(SCC(=O)NCc2ccc(OC)cc2)n[nH]c1=O, the Potency is reported as “inactive”. In the case of COc1cc(C(=S)N2CCCCC2)ccc1OCC(=O)Nc1ccccc1Cl, the Potency is reported as inconclusive [cytotoxic, single point]. For CC(=O)c1ccc(C(=O)N2CCc3c([nH]c4ccccc34)C2c2ccccn2)s1 (stereo not given), the Potency was inconclusive [cytotoxic, single point]. In the case of Cc1ccc(Cl)cc1-c1cc(C(=O)Nc2ccc(F)cc2)[nH]n1, the Potency is reported as inconclusive [cytotoxic, single point]. With COc1cc(CNc2ccc(N3CCCC3)cc2)ccc1OCc1ccccc1 the Potency was inconclusive [cytotoxic, partial curve]. For CCOC(=O)c1c(-c2ccccc2)oc2cc(CN(C)C)c(O)c(CN(C)C)c12, the Potency was inconclusive [cytotoxic, single point]. With CCOC(=O)c1c(C)nc2sc(C(=O)Nc3ccc(C(C)=O)cc3)c(N)c2c1-c1ccc(OC)cc1 the Potency was inconclusive [cytotoxic, partial curve]. For CSc1nc(-c2ccccc2)nc(C(Cl)Cl)n1, the Potency was inconclusive [cytotoxic, single point]. In the case of CC1CN(S(=O)(=O)c2csc(C(=O)Nc3ccccc3)c2)CC(C)O1 (stereo not given), the Potency is reported as inconclusive [cytotoxic, single point]. In the case of C=CCN1C(=O)C(O)(CC(=O)c2ccco2)c2cc(Br)ccc21 (stereo not given), the Potency is reported as inconclusive [cytotoxic, single point]. In the case of Cc1cc(C)nc(SCNC(=O)c2ccccc2)n1, the Potency is reported as active: 5.01 µM. For COc1ccc(S(=O)(=O)Nc2cccc3ccc(O)cc23)cc1, the Potency was active: 3.26 µM. For O=C(Nc1nc2ccc(S(=O)(=O)N3CCCCC3)cc2s1)c1cccnc1, the Potency was “inactive”. With O=C(Nc1nnc([C@H]2C[C@H](O)[C@@H](CO)O2)s1)c1ccccc1F the Potency was inconclusive [rising, single point]. For CCCC[C@@H]1C[C@H]1[C@@H](NC(=O)c1cccs1)c1ccc(Cl)cc1, the Potency was inconclusive [cytotoxic, single point]. For O=C(Cc1cccs1)Nn1c(Cc2cccs2)nc2ccccc2c1=O, the Potency was “inactive”. In the case of O=c1[nH]c(SCc2cccc([N+](=O)[O-])c2)nc2[nH]ncc12, the Potency is reported as inconclusive [cytotoxic, single point]. In the case of CCN(c1ccc(NS(=O)(=O)c2cc(Cl)ccc2Cl)cc1)C(C)C, the Potency is reported as inconclusive [cytotoxic, single point]. For N#CCSc1nnc(COc2cccc3ccccc23)n1-c1ccccc1, the Potency was inconclusive [cytotoxic, single point]. In the case of CCOC(=O)C1=C(COC(=O)/C=C/c2cccc(OC)c2)NC(=O)NC1C (stereo not given), the Potency is reported as “inactive”. In the case of Cn1nccc1C(=O)N1CCCC(C(=O)c2cccc3ccccc23)C1 (stereo not given), the Potency is reported as inconclusive [cytotoxic, single point]. In the case of COc1ccc(NC(=O)CCNC(=O)c2ccccc2Cl)cc1OC, the Potency is reported as “inactive”. With Cc1nn(-c2ccccc2)c(C)c1NC(=O)COC(=O)c1ccc(Cl)c(S(N)(=O)=O)c1 the Potency was “inactive”. In the case of Cc1cc(C)cc(OCC(=O)N2CCN(c3ncccn3)CC2)c1, the Potency is reported as “inactive”. With CC(=O)N1CCc2c(sc(NC(=O)c3ccc([N+](=O)[O-])o3)c2C(N)=O)C1 the Potency was active: 6.51 µM. For O=C(Nn1c(COc2ccccc2)nc2ccccc2c1=O)C(Cl)(Cl)Cl, the Potency was “inactive”. In the case of O=C(c1cccc([N+](=O)[O-])c1)N1CCN(C/C=C/c2ccccc2)CC1, the Potency is reported as “inactive”. With O=C(Nc1ccc(Cl)cc1)N1CCCN(Cc2ccc(F)cc2)C1 the Potency was inconclusive [cytotoxic, single point]. With Cc1cc(CNC(=O)CC2C(=O)NCCN2CC(C)(C)C)nn1C (stereo not given) the Potency was “inactive”. For CCOC(=O)C(C)Oc1cccc2c(=O)n(CC(=O)NCc3ccc(F)cc3)ccc12 (stereo not given), the Potency was inconclusive [cytotoxic, full curve]. In the case of Oc1ccc(C[C@H]2CNC(=S)N2CCc2cc(C(F)(F)F)cc(C(F)(F)F)c2)cc1, the Potency is reported as “inactive”. For COc1ccc(NS(=O)(=O)c2cccc(C(=O)NCc3ccccn3)c2)cc1, the Potency was “inactive”. For NC(N)=N/N=C/c1ccc(OCc2ccc(Cl)cc2Cl)cc1, the Potency was inconclusive [cytotoxic, single point]. With Cn1cc(C(=O)c2ccc(Cl)cc2Cl)cc1C(=O)N/N=C(\N)COc1ccc(Cl)cc1Cl the Potency was inconclusive [cytotoxic, single point]. In the case of COc1ccc(CNCc2cccc(C)c2)cc1, the Potency is reported as “inactive”. For Cc1cccc(NS(=O)(=O)c2ccc(NC(=O)CN(c3cc([N+](=O)[O-])ccc3C)S(C)(=O)=O)cc2)c1, the Potency was inconclusive [cytotoxic, single point].
Potency is read from the fitted curve at half-maximal effect; tags tell the direction and shape of the fitted curve.
